In PubChem BioAssay AID485294 (National Center for Advancing Translational Sciences (NCATS), 2010):
Out of some 370,000 compounds screened, about 150 (0.041%) were called active. Inconclusive means that the source gave no clear call. Such entries were picked first, then a sample of the others. The call rests on the fitted dose curve; in most records, active means well fitted inhibition curve with a large enough effect; inconclusive means small, poorly fitted or top-dose-only effect; inactive means flat fitted curve, though single readings scatter. No potency is given beside an inconclusive call; the fits are too rough.

Target: Beta-lactamase (Escherichia coli (strain K12)) (UniProt P00811)
Experiment: qHTS Inhibitors of AmpC Beta-Lactamase (assay with detergent); further: nearly all actives have a fitted effect of over 25% in size
Conditions: AmpC hydrolysis of nitrocefin, absorbance 480 nm, 0.01% Triton; series mostly up to 114 µM
Procedure, shortened: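 20 mM phosphate pH 7.0 + 0.01% (detergent screen) or 0.0001% Triton X-100; 5.3 nM AmpC reagent; cpd preinc 15 min RT; nitrocefin (800 uM stock) to start; A480 q20 s × 4 min; Activity was normalised to no-enzyme and no-compound control wells.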
Potency means the concentration at half of the fitted maximal effect; tags describe the fitted curve by direction and shape.

UniProt P00811, sequence (P00811 whole entry, looked up): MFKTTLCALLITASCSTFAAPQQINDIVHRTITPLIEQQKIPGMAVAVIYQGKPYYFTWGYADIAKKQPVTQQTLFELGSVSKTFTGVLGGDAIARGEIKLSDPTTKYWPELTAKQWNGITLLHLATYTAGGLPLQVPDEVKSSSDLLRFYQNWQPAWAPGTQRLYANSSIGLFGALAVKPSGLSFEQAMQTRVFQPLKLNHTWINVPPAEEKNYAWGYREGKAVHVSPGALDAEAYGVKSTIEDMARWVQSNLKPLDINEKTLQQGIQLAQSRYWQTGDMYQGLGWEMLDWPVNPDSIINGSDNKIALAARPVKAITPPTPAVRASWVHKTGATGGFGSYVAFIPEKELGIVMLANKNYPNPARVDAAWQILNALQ

SMILES	Potency
O=c1c(/C=N/N2CCOCC2)c(O)n(-c2ccccc2)c(=S)n1-c1ccccc1	inconclusive [inhibitor, full curve]
NC(=O)C1(N2CCCCC2)CCN(Cc2ccc(F)cc2)CC1	inactive
O=C(Nc1ccccc1)Nc1nc(-c2ccc(Cl)cc2)cs1	inactive
Cc1cccc(OCC(=O)Nc2cccc(C(=O)OCc3cc(=O)n4c(C)csc4n3)c2)c1	inactive
CSc1nc(C)c2c(n1)OC(CN1C(=O)c3ccccc3C1=O)C2 (stereo not given)	inconclusive [inhibitor, partial curve, poor fit]
CN(C)S(=O)(=O)c1cccc(C(=O)C2=C3SC=C(c4ccccc4)N3CC2)c1	inconclusive [inhibitor, single point]
Cc1cc(C(=O)N/N=C/c2ccc(OCc3ccccc3)cc2)c(C)o1	inconclusive [inhibitor, full curve, poor fit]
N#CCSc1nnc(-c2sc3ccccc3c2Cl)o1	inactive
CSCc1c(C(=O)Nc2ccc3c(c2)OCO3)oc2ccccc12	inactive
Cc1ccc(NC(=O)CNC(=O)c2ccco2)cc1	inactive
Cc1nc2ccccc2c(=O)n1N(c1ccccc1)c1ccccc1	inconclusive [inhibitor, partial curve]
Cc1nc2cccnc2n1C1CCN(C(=O)Nc2ccccc2C(F)(F)F)CC1	inactive
Cc1nc2nc(COc3ccccc3)nn2c(C)c1Cl	inconclusive [inhibitor, full curve, poor fit]
COc1cccc(-c2cccc(NC(=O)C3CCN(Cc4ccc(C)o4)CC3)c2)c1	inactive
c1ccc(-n2nnnc2-c2cnc(-c3ccncc3)nc2-c2cccs2)cc1	inconclusive [inhibitor, single point]
NC(=O)CC(NC(=O)Cc1ccc(Br)cc1)c1ccc(NCCN2CCCCC2)c([N+](=O)[O-])c1 (stereo not given)	inconclusive [inhibitor, full curve, poor fit]
O=C(CCSc1ccccc1)N1CCOCC1	inconclusive [inhibitor, full curve]
O=C(Nc1nnc(-c2ccc(Cl)cc2)o1)c1nc2ccccc2s1	inconclusive [inhibitor, full curve]
CC(C)(C)NC(=O)C(c1ccccc1F)N(Cc1ccco1)C(=O)c1csnn1 (stereo not given)	inconclusive [inhibitor, full curve, poor fit]
CSc1ccc(CNC(=O)c2ccc3c(c2)N(C)C(=O)C2CCCCN32)cc1 (stereo not given)	inactive
Cc1ccc(N2CC(C(=O)OCc3ccc([N+](=O)[O-])cc3)CC2=O)cc1 (stereo not given)	inactive
Cc1ccccc1OCc1ccc(-c2nc(C#N)c(N3CCCCC3)o2)o1	inactive
S=C(Nc1cccc(Cl)c1)Nc1ccc2c(c1)OCCO2	inconclusive [inhibitor, full curve]

SMILES	Potency
CC1CCN(S(=O)(=O)c2ccc(NC(=O)CN3CCN(c4ccccc4)CC3)cc2)CC1	inconclusive [inhibitor, full curve, poor fit]
CC1CC(C)CN(C(=O)c2ccc3ccccc3c2)C1 (stereo not given)	inconclusive [inhibitor, partial curve, poor fit]
CCc1ccccc1NC(=O)COC(=O)c1c(C)nsc1NC	inactive
Cc1cc(C)c(NC(=O)Cn2nnc(C(=O)NCc3cccs3)c2N)c(C)c1	inconclusive [inhibitor, full curve, poor fit]
CCc1ccc(N2C(=O)CN(Cc3ccc(OC)c(OC)c3)C2=S)cc1	inconclusive [inhibitor, partial curve, poor fit]
CCCCNc1ncnc2c1cnn2-c1ccc(Cl)cc1	inconclusive [inhibitor, full curve]
Cn1c(CC(=O)Nc2ccccc2)nnc1SCC(=O)NC1=NCCS1	inactive
CCN(CC)c1ccc2cc(-c3nc(-c4ccccc4)no3)c(=O)oc2c1	inactive
Cc1nc2c(-c3ccccc3)c(C)[nH]n2c(=O)c1Cl	inconclusive [inhibitor, single point]
O=S(=O)(c1ccccc1)c1ccc(N2CCCCCC2)cc1	inactive
COc1ccc(/C=C(\NC(=O)c2ccc(OC)cc2)C(=O)NC(CCSC)C(=O)O)cc1 (stereo not given)	inconclusive [inhibitor, full curve, poor fit]
CCc1cccc(C)c1NS(=O)(=O)c1ccc2c(c1)NC(=O)C(C)C(=O)N2 (stereo not given)	inactive
Cc1cccc(-n2cnc3c(c2=O)c2nc4ccccc4nc2n3Cc2ccco2)c1	inconclusive [inhibitor, full curve]
CC(=O)N1CCCc2cc(S(=O)(=O)N3CCCC(C(=O)N4CCN(c5ccccc5F)CC4)C3)ccc21 (stereo not given)	inactive
Cc1ccc2c(c1)N(CC(=O)NCCC1=CCCCC1)C(=O)c1cccnc1O2	inconclusive [inhibitor, full curve, poor fit]
CCCCC/S(CC1CC1(Cl)Cl)=N\S(=O)(=O)c1ccc(C)cc1 (stereo not given)	inconclusive [inhibitor, full curve, poor fit]
COc1ccc(OCCCC(=O)OC(C)C(=O)Nc2ccc(C)cc2)cc1 (stereo not given)	inconclusive [inhibitor, full curve]
CCC(C)NC(=O)CN(c1cc(C)ccc1OC)S(C)(=O)=O (stereo not given)	inconclusive [inhibitor, full curve, poor fit]
O=C(c1ccc(Cl)cc1)C1CCN(C(=O)c2ccc(F)cc2)CC1	inconclusive [inhibitor, partial curve, poor fit]
O=C(c1cccc(C(F)(F)F)c1)C1CCCN(C(=O)Cn2cncn2)C1 (stereo not given)	inconclusive [inhibitor, single point]
O=C(COC(=O)c1cccc(S(=O)(=O)N2CCCCC2)c1)NC1CCCc2ccccc21 (stereo not given)	inconclusive [inhibitor, full curve, poor fit]
Cc1ccc(N2CCN(/N=C/C(Cl)=C/c3ccccc3)CC2)cc1	inconclusive [inhibitor, single point]
